# Reference: patent US20250000992A1 (Eli Lilly, published 2025)
# Biological target: Sortilin receptor on HEK293 cells (UniProt Q99523 78-831, limits assumed)
# Experiment: cell-based or functional assay
binder,measurement,value
"Comparative Ex. 2 (8D3-PGRN HEK) (Fc fusion, Knob-and-hole Fc heterodimer; progranulin C-terminus free; also called scFv 8D3-hIgG1-LALA knob / hIgG1 LALA hole-PGRN) chain 1: EVQLVESGGGLVQPGNSLTLSCVASGFTFSNYGMHWIRQAPKKCLEWIAMIYYDSSKMNYADTVKGRFTISRDNSKNTLYLEMNSLRSEDTAMYYCAVPTSHYVVDVWGQGVSVTVSSGGGGSGGGGSGGGGSGGGGSGGGGSDIQMTQSPASLSASLEEIVTITCQASQDIGNWLAWYQQKPGKSPQLLIYGATSLADGVPSRFSGSRSGTQFSLKISRVQVEDIGIYYCLQAYNTPWTFGCGTKLELKGGGGQGGGGQGGGGQ[left out - human IgG1 Fc with changes] chain 2: [left out - human IgG1 Fc with changes]GGGGSGGGGSTRCPDGQFCPVACCLDPGGASYSCCRPLLDKWPTTLSRHLGGPCQVDAHCSAGHSCIFTVSGTSSCCPFPEAVACGDGHHCCPRGFHCSADGRSCFQRSGNNSVGAIQCPDSQFECPDFSTCCVMVDGSWGCCPMPQASCCEDRVHCCPHGAFCDLVHTRCITPTGTHPLAKKLPAQRTNRAVALSSSVMCPDARSRCPDGSTCCELPSGKYGCCPMPNATCCSDHLHCCPQDTVCDLIQSKCLSKENATTDLLTKLPAHTVGDVKCDMEVSCPDGYTCCRLQSGAWGCCPFTQAVCCEDHIHCCPAGFTCDTQKGTCEQGPHQVPWMEKAPAHLSLPDPQALKRDVPCDNVSSCPSSDTCCQLTSGEWGCCPIPEAVCCSDHQHCCPQGYTCVAEGQCQRGSEIVAGLEKMPARRASLSHPRDIGCDQHTSCPVGQTCCPSLGGSWACCQLPHAVCCEDRQHCCPAGYTCNVKARSCEKEVVSAQPATFLARSPHVGVKDVECGEGHFCHDNQTCCRDNRQGWACCPYRQGVCCADRRHCCPAGFRCAARGTKCLRREAPRWDAPLRDPALRQLL","Mature Cathepsin D levels in cell lysate (ELISA), HEK293 cells, 100 ng/mL, 24 hours",55.1
